Sequences with one replicate were seen in a single cluster, so their values are uncertain.
System: ATP
Experiment: switch fluorescence ratio, 500 uM ATP over buffer (Cy3 cluster intensity, sum of 5 cycles each) (fold (ratio)); higher = stronger signal-on switching upon ATP binding; sequences stand for … in TCGTCGGCAGCGTCAGATGTGTATAAGAGACAGTTTTTTTTTTTTTTTTTTTTTTTTT…TC
Details: aptamer strand: ATP DNA aptamer (quencher-CACCTGGGGGAGTATTGCGGAGGAAGG + anchor), 100 nM annealed; ATP concentration: 500 uM; one replicate
Summary of the method: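 Clusters with intensities outside 100-1000 RFU were excluded. The remaining Cy3-labelled switching-strand clusters on a modified Illumina MiSeq flow-cell had been annealed to 100 nM quencher-labelled ATP aptamer and imaged in selection buffer, then after 15 min with 500 uM ATP at 22 °C, for five cycles separated by NaOH stripping and re-annealing. The fluorescence ratio, averaged per switch-domain sequence, is each cluster's summed target-cycle Cy3 intensity over its summed buffer-cycle Cy3 intensity.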
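Further: ATP exposure 15 min at 22 °C before imaging.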

GTAGGGGCAG
switch fluorescence ratio: 0.991

AACGGGCATG
switch fluorescence ratio: 1.04

GATTAGATAT
switch fluorescence ratio: 1.01

TGTAGGTCAG
switch fluorescence ratio: 0.94

GAGGAATAGA
switch fluorescence ratio: 1.01

AAAATTCTCC
switch fluorescence ratio: 1.04

CCTCAGGGTC
switch fluorescence ratio: 1.46

ATTTTCGCGA
switch fluorescence ratio: 2.21

TCTATATGG
switch fluorescence ratio: 1.04

ATTCGTTCAA
switch fluorescence ratio: 0.963

GAGCTTATCC
switch fluorescence ratio: 0.922

TACGTAAGAT
switch fluorescence ratio: 1.19

AGCAGTATG
switch fluorescence ratio: 1.03

CACGGGGACT
switch fluorescence ratio: 1.15

AGGATGGTGT
switch fluorescence ratio: 0.993

GACTGTGGG
switch fluorescence ratio: 0.993

GCCGCACGCT
switch fluorescence ratio: 1.08

CAAGACCGTC
switch fluorescence ratio: 1.1

GCGGTTCGTT
switch fluorescence ratio: 0.978

TATAAAAACA
switch fluorescence ratio: 1.03

TAGTTAACC
switch fluorescence ratio: 0.972

GTTACCATCG
switch fluorescence ratio: 0.978

TAGCACCTTT
switch fluorescence ratio: 1.02

AGCGAATTT
switch fluorescence ratio: 1

AGGGCAACGG
switch fluorescence ratio: 1.05

TGTGGCTGCT
switch fluorescence ratio: 1.07

CACTCACGAC
switch fluorescence ratio: 1.36

AATTATCGTA
switch fluorescence ratio: 1.01

GAAGGCTTTT
switch fluorescence ratio: 0.988

CTGTTATTCC
switch fluorescence ratio: 0.993

TTCAGTACTG
switch fluorescence ratio: 1.03

AGCAGCCTGA
switch fluorescence ratio: 0.994

ATTTTTGACT
switch fluorescence ratio: 1.01

GAGAGACTGA
switch fluorescence ratio: 0.992

GTACTGTACG
switch fluorescence ratio: 1.29

GATTGAAAAG
switch fluorescence ratio: 1.03

TCACAATCGT
switch fluorescence ratio: 1.35

GCTACGCCAT
switch fluorescence ratio: 1.79

GCGGCGCTGC
switch fluorescence ratio: 1.01

TATCAGCTTA
switch fluorescence ratio: 0.984

ACAGTTTTTG
switch fluorescence ratio: 1.06

TTACTAGAAA
switch fluorescence ratio: 0.98

TGAACGTGGG
switch fluorescence ratio: 1.01

CAATAAGGGT
switch fluorescence ratio: 1.04

TTCCTTGAGG
switch fluorescence ratio: 0.975

CTGTGATGAT
switch fluorescence ratio: 0.954

GTGTCTTGGT
switch fluorescence ratio: 0.968

TTTTTACCTA
switch fluorescence ratio: 1.01

TTGTACCGGG
switch fluorescence ratio: 0.979

AGTAATGGCT
switch fluorescence ratio: 0.95

TAGCATTTAT
switch fluorescence ratio: 0.982

GTTAAACGG
switch fluorescence ratio: 1.03

ATGGGCTTTT
switch fluorescence ratio: 0.985

GCTGGCTAGC
switch fluorescence ratio: 0.97

CACCCGGGGC
switch fluorescence ratio: 1.39

GAATTTACAG
switch fluorescence ratio: 1.02

GCCGTCAGCT
switch fluorescence ratio: 0.982

TTCACTGCTG
switch fluorescence ratio: 1.05

TTCACGTACA
switch fluorescence ratio: 1.66

AAGTGGGCAG
switch fluorescence ratio: 0.968

TGTTTCTTCT
switch fluorescence ratio: 0.987

ATATCTTGAC
switch fluorescence ratio: 0.982

GCCGTATTTC
switch fluorescence ratio: 1.02

GGTCTAGTTG
switch fluorescence ratio: 1.03

TATGATTGCC
switch fluorescence ratio: 1.02

CCTTAGCGTC
switch fluorescence ratio: 1.54

ATAGGAGATT
switch fluorescence ratio: 0.977

AAAACAAACG
switch fluorescence ratio: 0.996

GCGTCAGACG
switch fluorescence ratio: 1.01

CATCAGCGTC
switch fluorescence ratio: 1.99

GGTGTGCCA
switch fluorescence ratio: 0.967

AGCTGCATCA
switch fluorescence ratio: 1.1

TGTGTTGATA
switch fluorescence ratio: 1.01

TTAACGCT
switch fluorescence ratio: 1.04

CTTCACCTTA
switch fluorescence ratio: 1.07

CTCCTGTCCC
switch fluorescence ratio: 1.14

CACTTGAAGC
switch fluorescence ratio: 1.02

CTGGAATATG
switch fluorescence ratio: 1.18

CACATTCTGT
switch fluorescence ratio: 1.01

ATTGTTATGC
switch fluorescence ratio: 1.02

ATTGAATAAG
switch fluorescence ratio: 0.965

AGGGAGGTCT
switch fluorescence ratio: 0.979

GAGATACTTG
switch fluorescence ratio: 1.05

AAGAGAGTCT
switch fluorescence ratio: 0.886

TCGTTGAAAC
switch fluorescence ratio: 0.961

TGCACGCGAC
switch fluorescence ratio: 1.58

ACATAGTGGC
switch fluorescence ratio: 1.02

AGTGATCGTC
switch fluorescence ratio: 0.931

TGCTTAGTAA
switch fluorescence ratio: 1.03

TTGTCGACT
switch fluorescence ratio: 1.01

ATGTGTTTCA
switch fluorescence ratio: 0.973

CCACGTTGGT
switch fluorescence ratio: 0.982

CGTATTCGAG
switch fluorescence ratio: 0.95

TTTCCCTGTG
switch fluorescence ratio: 1.11

GCTGGACGGC
switch fluorescence ratio: 0.968

TGGTCGGCGA
switch fluorescence ratio: 1.02

GAGGTAATTG
switch fluorescence ratio: 1.02

CAGACCTAGT
switch fluorescence ratio: 0.986

TTTGGGTTG
switch fluorescence ratio: 0.973

GAATCGTTCG
switch fluorescence ratio: 1.02

GGATTGTCTG
switch fluorescence ratio: 0.992

ACTGCTTAGC
switch fluorescence ratio: 1.03

AGGGTTGGC
switch fluorescence ratio: 1.05

TATTTGCCTT
switch fluorescence ratio: 0.975

TATCGCCTGT
switch fluorescence ratio: 1.06

TTACCGCTTA
switch fluorescence ratio: 1.24

CCACCATTGA
switch fluorescence ratio: 1.09

GGAGCTCCGG
switch fluorescence ratio: 1.03

CAAGAGGCCT
switch fluorescence ratio: 1

AGTGGCGGAG
switch fluorescence ratio: 1.04

CGCCAAAGGA
switch fluorescence ratio: 1.04

TCAGCACAG
switch fluorescence ratio: 1.01

AGATTTAAAT
switch fluorescence ratio: 1.01

CGGCCGGTGA
switch fluorescence ratio: 1.07

TCCCTGTCCA
switch fluorescence ratio: 1.13

GAAGGGGAGA
switch fluorescence ratio: 0.985

AAGCGCTTT
switch fluorescence ratio: 1.01

AAGGGAAAC
switch fluorescence ratio: 0.978

TTCGCCCCTG
switch fluorescence ratio: 0.999

TATACTCACA
switch fluorescence ratio: 1.35

TAATCATGAC
switch fluorescence ratio: 1.09

TGAGCGATGT
switch fluorescence ratio: 1.01

AGCTCTCCG
switch fluorescence ratio: 1.29

CCCGCAGTCG
switch fluorescence ratio: 2.11

TCGTTGAGCT
switch fluorescence ratio: 0.981

GTGCGGACTT
switch fluorescence ratio: 0.96

CCCCGGTGTG
switch fluorescence ratio: 3.37

TCTTGCGGAA
switch fluorescence ratio: 1.21

TTTGAAAAAA
switch fluorescence ratio: 1.02

GCCCCTGGCT
switch fluorescence ratio: 1.04

GTGAGACCTG
switch fluorescence ratio: 0.932

GAGTTACAGC
switch fluorescence ratio: 1.01

TGCATTTAGA
switch fluorescence ratio: 0.984

CGACGTATTA
switch fluorescence ratio: 1.06

GCCGCACCAT
switch fluorescence ratio: 1.11

CCGGATTTCA
switch fluorescence ratio: 0.994

CCGTATTACC
switch fluorescence ratio: 2.61

GATTAGGTGC
switch fluorescence ratio: 1.13

GATAGACTCC
switch fluorescence ratio: 1.05

CCTTTTTGCG
switch fluorescence ratio: 1.04

CGCATGTTGG
switch fluorescence ratio: 0.987

ACCCCCGGGA
switch fluorescence ratio: 1.98

GTTACAGTC
switch fluorescence ratio: 1.01

GCACCTCTAC
switch fluorescence ratio: 1.23

CTAACTTAAG
switch fluorescence ratio: 1.02

GCCACGGCCA
switch fluorescence ratio: 1.01

TGTGTTGGA
switch fluorescence ratio: 1.02

TAAGTAGTGT
switch fluorescence ratio: 0.956

ACCGGTAAGT
switch fluorescence ratio: 1.02

AGTGGTAGGA
switch fluorescence ratio: 0.997

CGTGAGTATG
switch fluorescence ratio: 1.04

CTTTCGGGTA
switch fluorescence ratio: 0.99

CGCCTCCCGT
switch fluorescence ratio: 1.54

AGTCAGGGCT
switch fluorescence ratio: 0.971

GATTGTTTTC
switch fluorescence ratio: 0.999

AAATAGTGGT
switch fluorescence ratio: 0.981

ACTCATATTT
switch fluorescence ratio: 1.04

GTAGCGAGGA
switch fluorescence ratio: 1.12

TTTCGCCTC
switch fluorescence ratio: 1.24

AAGTGGTTC
switch fluorescence ratio: 0.954

CAGTATTCGT
switch fluorescence ratio: 0.967

ACACGCATGG
switch fluorescence ratio: 1.23

CGTTTATCCG
switch fluorescence ratio: 1.06

CATAGACACG
switch fluorescence ratio: 1.01

GCCACCTTGG
switch fluorescence ratio: 1.02

TTTCAGTAT
switch fluorescence ratio: 0.991

CCCGGGAGAT
switch fluorescence ratio: 1.01

GACTGAAAGG
switch fluorescence ratio: 0.939

TGAACAATTA
switch fluorescence ratio: 1

TAATTTGATA
switch fluorescence ratio: 0.998

ACATCAGAGT
switch fluorescence ratio: 0.999

GGCTGGAACA
switch fluorescence ratio: 1.02

TGGGTAGACG
switch fluorescence ratio: 1.02

CGGGCGGAAG
switch fluorescence ratio: 1

TACCGTGGA
switch fluorescence ratio: 1.02

TTGGTAGGT
switch fluorescence ratio: 1.04

TTCCGGAAA
switch fluorescence ratio: 0.968

CCGTTCCGAA
switch fluorescence ratio: 1.62

CAGGTAATTC
switch fluorescence ratio: 1.05

CCAGAGGACT
switch fluorescence ratio: 1.02

ACGAAACAAT
switch fluorescence ratio: 1.18

TTGGGATCT
switch fluorescence ratio: 1.03

TCGCCCAAGT
switch fluorescence ratio: 1.03

CATCTAGCGA
switch fluorescence ratio: 2

CAACTCACGG
switch fluorescence ratio: 1.46

TAGCTGTGCC
switch fluorescence ratio: 1.02

AAAACACTTT
switch fluorescence ratio: 1.03

CATTAACCAA
switch fluorescence ratio: 0.969

TAGCGTCTT
switch fluorescence ratio: 0.987

TGCTGGGTGT
switch fluorescence ratio: 1.04

TGGGACTGTG
switch fluorescence ratio: 1.04

ATTAGGCTGG
switch fluorescence ratio: 0.987

GCGATTGGTG
switch fluorescence ratio: 1.02

GTATTATGGC
switch fluorescence ratio: 0.979

ACCTAGGGCG
switch fluorescence ratio: 0.989

AGGATTGGTA
switch fluorescence ratio: 1.01

TAAAACATGC
switch fluorescence ratio: 1.15

GAATTGAGAG
switch fluorescence ratio: 0.916

CGACTAGCGC
switch fluorescence ratio: 1.06

CGGCCTGGTA
switch fluorescence ratio: 0.977

GGCGGTACCT
switch fluorescence ratio: 0.995

Source: the supplement of paper PMC10126150
